Laboratory results from PubChem BioAssay (NCI).
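Method: 48-hour compound exposure of cells in 96-well plates, five concentrations, linear interpolation of endpoints. GI50 is the concentration that inhibits growth by half. Definition used: TGI = concentration required for complete inhibition of growth.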

System: NCI-H322M lung
Assay: inhibition of tumour cell growth, NCI panel, 48 h

Question: With OC1CCC(Cn2c(C(F)(F)F)cc3c(Cl)ncnc32)CC1 (configuration not stated) as the compound, how does the GI50 read?
Answer: Its GI50 is 3.84 µM.

Question: What about the TGI of the same compound?
Answer: Its TGI is 13.6 µM.

Question: Which results are given for CN1CCCN(Cc2ccc(C(=O)Nc3cccc(Nc4ccc5c(O)cccc5n4)c3)cc2C(F)(F)F)CC1?
Answer: GI50: 3.27 µM; TGI: 11.8 µM

Question: COc1ccc(-c2nc3ccc(-c4nnc(SCc5ccccc5)o4)cc3[nH]2)cc1 was tested. Which GI50 did it give?
Answer: Its GI50 is 3.86 µM.

Question: And the TGI?
Answer: The TGI was 17 µM.

Question: For O=C(c1ccc(OCCN2CCOCC2)cc1)C1[C@H](c2ccc(Cl)cc2)[C@@H](c2ccccc2)NC12C(=O)Nc1ccc(Cl)cc12 (some centres not stated), which GI50 is on record?
Answer: The GI50 was 12.3 µM.

Question: What about the TGI of the same compound?
Answer: Its TGI is over 47.3 µM.

Question: Which GI50 does the source give for CNC(=O)c1cccc(N2CCc3c2ccc(NC(=O)Nc2ccc(N4CCN(C)CC4)c(C(F)(F)F)c2)c3F)c1 here?
Answer: Its GI50 is 5.09 µM.

Question: What about the TGI of the same compound?
Answer: The TGI was 9.82 µM.

Question: For O=C(c1ccc(OCCN2CCOCC2)cc1)C1[C@H](c2ccc(Cl)cc2)[C@@H](c2ccccc2)NC12C(=O)Nc1ccc(Br)cc12 (some centres not stated), which GI50 is on record?
Answer: Its GI50 is 4.08 µM.

Question: And the TGI?
Answer: Its TGI is over 16.3 µM.
